Assay results as given in PubChem BioAssay AID488969 (Vanderbilt High Throughput Screening Facility, 2010).
In all, about 110,000 compounds were measured (“z-score”: median about -0.1, highest 2% from about 2 on). Some of the results follow. Active and inactive are the calls of the source.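 Rule for the calls: active = z-score in the third read window above 3 or below -3; inactive = the rest.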

Target: Metabotropic glutamate receptor 8 (Rattus norvegicus) (UniProt P70579)
Experiment: mGluR8 Gi/Go-coupled signaling modulation – cell-based, rat, thallium flux, HTS, primary screen (AID 488969)
Details: HEK293 rat mGluR8, GIRK (G protein-gated inwardly rectifying potassium channel) thallium flux, FluoZin2; at 10 µM; stronger effect = higher value; submaximal glutamate (EC20) added with thallium

Sequence of UniProt P70579 (P70579 whole entry, looked up): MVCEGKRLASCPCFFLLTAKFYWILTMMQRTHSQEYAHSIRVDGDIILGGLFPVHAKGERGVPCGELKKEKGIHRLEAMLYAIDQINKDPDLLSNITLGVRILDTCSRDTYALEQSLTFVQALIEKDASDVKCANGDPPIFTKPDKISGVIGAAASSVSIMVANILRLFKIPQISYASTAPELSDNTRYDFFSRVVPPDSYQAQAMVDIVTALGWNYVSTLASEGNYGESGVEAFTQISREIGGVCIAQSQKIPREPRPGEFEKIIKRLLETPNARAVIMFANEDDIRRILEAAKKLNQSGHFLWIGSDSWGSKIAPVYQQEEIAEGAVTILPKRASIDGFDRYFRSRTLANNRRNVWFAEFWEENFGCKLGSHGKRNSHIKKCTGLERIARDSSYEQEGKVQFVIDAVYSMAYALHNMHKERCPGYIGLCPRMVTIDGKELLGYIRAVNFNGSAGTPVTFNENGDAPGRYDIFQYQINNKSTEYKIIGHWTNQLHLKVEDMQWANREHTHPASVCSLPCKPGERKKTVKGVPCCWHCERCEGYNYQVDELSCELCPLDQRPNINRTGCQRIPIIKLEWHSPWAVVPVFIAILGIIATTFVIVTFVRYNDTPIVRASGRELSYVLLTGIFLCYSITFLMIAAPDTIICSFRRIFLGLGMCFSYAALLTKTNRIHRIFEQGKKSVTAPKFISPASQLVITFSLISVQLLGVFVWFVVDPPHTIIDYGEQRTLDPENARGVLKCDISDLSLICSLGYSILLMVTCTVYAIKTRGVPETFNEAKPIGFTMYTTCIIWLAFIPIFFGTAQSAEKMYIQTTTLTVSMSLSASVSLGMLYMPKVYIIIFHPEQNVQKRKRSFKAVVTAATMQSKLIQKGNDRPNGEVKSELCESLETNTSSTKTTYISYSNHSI

| Compound | z-score |
| --- | --- |
| COc1ccc2c(c1)O/C(=C\c1sccc1C)C2=O | -0.62 |
| CCN(C(=O)c1coc(=O)c(Br)c1)c1ccc2c(c1)OCO2 | 1.14 |
| Cc1ccccc1CSc1nc2n(n1)C(c1cccs1)C1=C(CCCC1=O)N2 (centres undefined) | -1.16 |
| O=C(NCCC1=CCCCC1)c1ccc(Br)o1 | -0.563 |
| Cc1cc(-c2ccccc2C(=O)O)on1 | 0.117 |
| CCCN1C(=O)/C(=N\OCC(=O)NC23CC4CC(CC(C4)C2)C3)c2ccccc21 | -0.337 |
| CCOC(=O)c1cc(CC)sc1NC(=O)COc1ccc2c(C)cc(=O)oc2c1 | -0.465 |
| O=[N+]([O-])c1c(NCCO)cc(Sc2nc3ccccc3s2)c2nonc12 | 1.68 |
| Cc1cccc(C(C)C)c1NC(=O)c1cccnc1 | 0.119 |
| Cc1cc(C)cc(N(C(=O)c2cc3ccccc3oc2=O)C2C=CS(=O)(=O)C2)c1 (centres undefined) | -0.11 |
| CN(Cc1ccccc1)Cc1nc2c(c(=O)n(C)c(=O)n2C)n1CCc1ccccc1 | -0.154 |
| Cc1cc(C)nc(NS(=O)(=O)c2ccc(NC(=O)C3(c4ccccc4)CCCC3)cc2)n1 | -0.192 |
| O=c1[nH]cnc2cc(-c3ccccc3)sc12 | -0.416 |
| Cc1c(Cl)cccc1NC(=S)NCCCN(C)C | -0.139 |
| O=[N+]([O-])c1ccc(N2CCCC2)cc1N1CCCC1 | -0.564 |
| O=C(Cn1c(=O)n(-c2ccc(F)cc2)c(=O)c2sccc21)c1ccccc1 | -0.796 |
| Cc1cc(C2=NNC(=NC3CC3)SC2)c(C)n1-c1ccccc1 | -1.27 |
| N#Cc1ccc(/C=N/NC(=O)c2cc(-c3cccs3)nc3ccccc23)cc1 | -0.302 |
| Cc1nn(-c2ccccc2)c(OC(=O)c2cccs2)c1S(=O)(=O)c1ccccc1 | -1.11 |
| O=C(O)CSc1cnc2ccccc2n1 | -0.0271 |
| C=CCn1c(N)c(C(=O)NC2CCCCC2)sc1=S | -0.117 |
| O=C1c2cccc3cccc(c23)C(=O)N1CC1CCN(S(=O)(=O)c2ccc(F)cc2)CC1 | -0.403 |

| Compound | z-score |
| --- | --- |
| Cc1cccc(CCNS(=O)(=O)c2ccc(S(=O)(=O)NC3CCCC3)cc2)c1 | -0.217 |
| O=S(=O)(c1cc(F)cc(F)c1)N1CCN(c2ncccn2)CC1 | -1.38 |
| O=C(c1ccco1)N1CCN(C(=O)c2cnn3c2NC(c2cccs2)CC3C(F)(F)F)CC1 (centres undefined) | active: -7.82 |
| Cc1nn(C)c(C(=O)N/N=C/c2ccc(Br)cc2)c1Cl | -0.485 |
| Cc1ccccc1S(=O)(=O)Cc1ccc(C(=O)NC(C)c2ccc3c(c2)OCCO3)o1 (centres undefined) | -0.387 |
| Cn1c(=O)n(C)c2cc(C(=O)O)ccc21 | -0.421 |
| Cc1cccc2cc(C#N)c(NCCNS(=O)(=O)c3ccc4c(c3)OCCO4)nc12 | 0.418 |
| O=C(Nc1cc(Cl)ccc1Oc1ccccc1)c1ccccc1F | active: 3.37 |
| Cc1cc(C)n(-c2nc3c(c(=O)n(Cc4ccc(Cl)c(Cl)c4)c(=O)n3C)n2C)n1 | -0.0996 |
| O=C(CCn1cccc1)NCc1ccc2c(c1)OCO2 | -0.423 |
| N#Cc1nc(COc2ccccc2Cl)oc1NCc1ccco1 | -0.293 |
| COC(=O)c1ccc(C(=O)OC)c(NC(=O)CN(C)Cc2ccc(Cl)c(Cl)c2)c1 | -0.0899 |
| COc1ccc(N2C(=O)c3ccccc3NC23C(=O)N(C)c2ccccc23)cc1 (centres undefined) | -0.201 |
| Cc1ccc(-c2nn3nnnc3c3ccccc23)cc1 | -0.97 |
| CCCCNC(=O)CN1C(=O)C(CC)Oc2ccc(Cl)cc21 (centres undefined) | -0.426 |
| COc1cc(S(=O)(=O)NCc2ccccn2)c(OC)cc1Cl | -0.212 |
| COC(=O)n1c(=O)oc2cc(S(=O)(=O)N3CCCCC3)ccc21 | 0.0194 |
| Cc1ccc(CNc2ccc3c(c2)OCO3)cc1 | -0.24 |
| C1=C(CCNCC2CC2)CCCC1 | 0.204 |
| O=C(Nc1ccc2c(c1)nc1n2CCOC1)c1ccco1 | 0.21 |
| CC1CCCC(C)N1C(=O)CSc1nnc(-c2c[nH]c3ccccc23)o1 (centres undefined) | -0.517 |
| CCOC(=O)c1c(C)n(C)c2ccc(O)c(CN3CCC(C)CC3)c12 | active: 3.63 |

| Compound | z-score |
| --- | --- |
| Cc1c(C(C)O)nnn1-c1nonc1N (centres undefined) | 0.215 |
| CC12CCC(C(N)=O)(c3nc4ccccc4nc31)C2(C)C (centres undefined) | -0.00707 |
| CCN(CC)S(=O)(=O)c1ccc(C(=O)OC2CCCCC2CN(C)C)cc1 (centres undefined) | -0.992 |
| Cc1ccc(-c2csc3ncnc(-n4cnc5ccccc54)c23)cc1 | -0.525 |
| c1ccc(CC2CCN(c3nc4ccccc4n4cnnc34)CC2)cc1 | -0.185 |
| COc1ccc(NS(=O)(=O)c2ccc(NS(C)(=O)=O)cc2)cc1 | -0.688 |
| COc1ccc(CN(CC2CCCO2)C(=O)CN2C(=O)C(C)Oc3ccc(C)cc32)cc1OC (centres undefined) | -0.371 |
| O=C(O)CC1S/C(=N/N=C/c2ccc(-c3ccccc3[N+](=O)[O-])o2)NC1=O (centres undefined) | -0.268 |
| CCN(CC)CCCNC(=O)Cc1c(C(=O)O)n(C)c2ccccc12 | 0.239 |
| CC1(C)CC(=O)C/C(=N\NC(=O)c2cccs2)C1 | 0.00718 |
| Cc1cc(C(=O)CN2C(=O)NC3(CCCc4ccccc43)C2=O)c(C)n1Cc1ccco1 (centres undefined) | 0.0556 |
| CCOc1ccc(/C(O)=C2/C(=O)C(=O)N(CCOCCO)C2c2cccnc2)cc1 (centres undefined) | 0.108 |
| COc1ccc(OC)c(Nc2nc(-c3cccs3)cs2)c1 | 0.0362 |
| CC(C)N(Cc1cc2ccccc2[nH]c1=O)C(=O)c1cccnc1 | 0.484 |
| CCN(CC)S(=O)(=O)c1ccc(C)c(NC(=O)COc2ccc(Cl)cc2Br)c1 | -0.162 |
| CCOc1nc(NC2CCCCC2)nc(NC(C)(C)C)n1 | -0.931 |
| Cc1nnc(NC(=O)c2ccco2)s1 | active: 3.93 |
| CCc1c(C)c(C#N)c2nc3ccccc3n2c1N1CCN(c2cc(C)ccn2)CC1 | -0.193 |
| COc1ccc(C(=O)CSc2ccc(-c3ccc(C)cc3)nn2)cc1 | 0.0135 |
| O=c1[nH]c(=O)n(-c2ccc(F)cc2)c2c1C(C(F)(F)F)(C(F)(F)F)N=C(c1ccc(F)cc1)N2 | -0.611 |
| CCCOc1ccc(CNC(=S)NCc2ccc(OC(C)C)cc2)cc1 | -0.0698 |
| O=C(NC(=S)Nc1ccccc1N1CCOCC1)c1sc2ccccc2c1Cl | 1.18 |

| Compound | z-score |
| --- | --- |
| Cn1nc(C(F)(F)F)c(/C=N/OC(=O)c2ccccc2)c1Cl | 0.158 |
| c1ccc2sc(C3CCN(Cc4nnnn4Cc4ccc5c(c4)OCO5)CC3)nc2c1 | 0.227 |
| O=c1[nH]nnc2sc3c(c12)CCCC3 | 0.0199 |
| O=S(=O)(c1ccccc1)c1nc(-c2ccco2)oc1NCc1ccccc1 | -0.301 |
| COc1ccc(NC(=O)Nc2ccc(C(=O)N3CCOCC3)cc2)cc1 | 0.271 |
| CSc1nnc(-c2ccc(S(=O)(=O)N3CCOCC3)cc2)n1CC1CCCO1 (centres undefined) | -1.21 |
| CCOc1ccc(NC(=O)CSc2nc3ccccc3c(=O)n2CCCC(=O)N2CCCC2)cc1 | -0.154 |
| Cc1ccc(C)c(N2CCN(c3ncnc4c3cnn4-c3ccccc3)CC2)c1 | -0.0672 |
| c1ccc(CCn2nnnc2CN2CCN(C3CCCC3)CC2)cc1 | -0.263 |
| COc1ccc(NC(=O)CCCSc2nc(-c3ccco3)cc(C(F)(F)F)n2)cc1OC | 1.53 |
| CC1CCN(C(=O)CN(c2ccc(Oc3ccccc3)cc2)S(C)(=O)=O)CC1 | -0.522 |
| Cc1ccc(S(=O)(=O)N2CC(=O)Nc3ccccc32)cc1 | -0.191 |
| COc1ccc(-c2c(C(=O)O)nc3ccccc3c2C(=O)O)cc1 | -0.167 |
| Cn1c(=O)c2c(nc(SCCNS(=O)(=O)c3ccccc3)n2C)n(C)c1=O | 0.393 |
| COC(=O)c1[nH]c2cccc(OC)c2c1NC(=O)CCN1CCN(c2ccccc2F)CC1 | 0.0528 |
| O=C(Nc1ccc(OC(=O)c2ccco2)cc1)c1ccco1 | -1.04 |
| CCOC(=O)c1ccc(NC(=O)CSc2nnc(CNC(=O)c3ccccc3F)o2)cc1 | -0.186 |
| COc1cccc(-c2nc(CS(=O)CC(=O)NCc3ccccc3)c(C)o2)c1 (centres undefined) | -0.366 |
| CCCCN(C(=S)Nc1ccccc1)C1CCS(=O)(=O)C1 (centres undefined) | -0.37 |
| c1ccc(C(c2ccccc2)c2nc(-c3cccnc3)no2)cc1 | -0.277 |
| CCCCn1c(SCC(=O)N2CCC(C(=O)OCC)CC2)nc2cc(S(N)(=O)=O)ccc21 | -1.11 |
| O=C(Nc1ccc(S(=O)(=O)NCCc2ccccc2)cc1)c1ccc(Br)o1 | -0.241 |

| Compound | z-score |
| --- | --- |
| Cc1ccccc1NC(=O)CNC(=O)c1ccc(C(F)(F)F)cc1 | -0.0901 |
| O=C(O)CCC(=O)NC1CCCCCCC1 | active: 3.34 |
| O=C(Nc1nc(=O)c2ccccc2s1)c1ccc(F)cc1 | active: 16.3 |
| COc1ccccc1NC(=O)CC1COc2ccccc2O1 (centres undefined) | 0.0423 |
| CCCS(=O)(=O)N1CCn2c(nc3ccccc32)C1 | -0.424 |
| COc1ccc(CCNC(=O)C2CCN(S(=O)(=O)N3CCCCC3)CC2)cc1OC | 0.168 |
| Cc1ccc(S(=O)(=O)NC2(C(=O)O)CCCCC2)cc1 | 0.393 |
| C=CCN1C(=O)C(O)(CC(=O)c2ccc(Cl)cc2)c2ccccc21 (centres undefined) | 0.285 |
| COc1ccc(CN2CC(C(=O)N3CCOCC3)CC2=O)cc1 (centres undefined) | -0.0405 |
| COc1ccc(C2CC(=O)n3nc(C45CC6CC(CC(C6)C4)C5)nc3S2)cc1OC (centres undefined) | 0.344 |
| CCCC1(c2ccccc2)NC(=O)N(CC(=O)Nc2sc(-c3ccccc3)cc2C(=O)OCC)C1=O (centres undefined) | -0.0965 |
| Oc1ccccc1-c1nc(NCCN2CCOCC2)c2ccccc2n1 | -1.2 |
| Cc1cc(C)c(/C=N/NC(N)=O)c(C)c1/C=N/NC(N)=O | 0.0401 |
| CC(=O)N1CCc2cc(S(=O)(=O)NCCN3CCC(C)CC3)ccc21 | 0.0551 |
| COC(=O)c1c(N)sc2c1CCN(c1ncc(C(F)(F)F)cc1Cl)C2 | -0.112 |
| O=C(CSc1ccc(-c2ccco2)nn1)c1ccccc1 | active: 7.29 |
| Cc1ccc2[nH]c(=O)c(CN(CC3CCCO3)C(=O)c3ccncc3)cc2c1 (centres undefined) | 0.35 |
| CCn1cc(C(=O)NCc2ccco2)c(=O)c2cc(S(=O)(=O)N3CCc4ccccc4C3)ccc21 | -0.51 |
| CC(C)Cn1c(=O)[nH]c2ccccc21 | 0.476 |
| Brc1ccc2c(c1)OCCOCCOc1cc(Br)ccc1OCCOCCOCCO2 | -0.346 |
| O=C(NCc1ccc(Cl)cc1)C1CCN(S(=O)(=O)c2cc([N+](=O)[O-])ccc2Cl)CC1 | 0.0626 |
